Data from paper PMC6919601, “Identification of Plasmodium dipeptidyl aminopeptidase allosteric inhibitors by high throughput screening” (PLoS ONE, 2019).
Where “and” joins values, the source holds several entries; their conditions need not be identical. Identical values can stand only once. In all, about 110,000 compounds went through this assay and about 230 (0.21%) showed an effect of 50% or more. This is one part of the list.

biological target: DPAP1 (Plasmodium falciparum, UniProt Q8IIJ9); assay: primary screen, percent inhibition; read by cleavage of a fluorogenic dipeptide substrate; higher = more effect of the substance; parameters: species or system P. falciparum D10 trophozoite lysates; single well
Sequence (Q8IIJ9 whole entry, looked up): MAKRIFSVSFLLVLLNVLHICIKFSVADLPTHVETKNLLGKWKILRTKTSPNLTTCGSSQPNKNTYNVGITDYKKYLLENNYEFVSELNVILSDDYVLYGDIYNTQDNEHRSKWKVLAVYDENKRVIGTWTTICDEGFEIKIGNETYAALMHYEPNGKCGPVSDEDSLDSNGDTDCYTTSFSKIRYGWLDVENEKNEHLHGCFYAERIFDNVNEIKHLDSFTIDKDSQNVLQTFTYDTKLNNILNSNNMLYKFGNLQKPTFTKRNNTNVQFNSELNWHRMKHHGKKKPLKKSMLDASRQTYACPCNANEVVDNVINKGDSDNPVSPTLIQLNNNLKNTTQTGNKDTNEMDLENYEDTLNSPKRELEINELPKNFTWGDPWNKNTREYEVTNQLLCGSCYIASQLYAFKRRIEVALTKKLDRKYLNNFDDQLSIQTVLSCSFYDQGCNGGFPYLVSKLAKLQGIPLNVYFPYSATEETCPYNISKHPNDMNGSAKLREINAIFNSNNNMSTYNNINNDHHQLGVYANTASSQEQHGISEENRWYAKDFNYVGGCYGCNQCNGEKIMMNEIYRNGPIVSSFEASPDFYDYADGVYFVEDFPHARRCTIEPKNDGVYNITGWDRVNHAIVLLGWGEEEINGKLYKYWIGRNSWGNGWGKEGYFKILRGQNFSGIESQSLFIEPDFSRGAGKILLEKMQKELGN
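Note: 30 min substrate incubation versus DMSO and 10 µM JCP410 controls.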

Row | Compound | % Inhibition @ 10 uM
1 | CC1CCN(C(=O)c2ccc(COc3ccccc3Cl)o2)CC1 | -13.7%
2 | O=C1N=C(Nc2ccc(Br)cc2)S/C1=C\c1ccccn1 | -10.8%
3 | O=C(CN(CCc1ccccc1)S(=O)(=O)c1ccc(Br)cc1)N1CCCCCC1 | 9.51%
4 | CCOC(=O)N1CCc2c(sc3c2C(=O)NC(c2ccccc2)N3)C1 (stereo not drawn) | -2.75%
5 | Fc1cccc(Cl)c1CNCc1ccccc1Cl | 3.99%
6 | CSc1ccc(NC2CCN(C)CC2)cc1 | -1.82%
7 | NC(=O)CN(Cc1ccccc1F)S(=O)(=O)c1ccc(Cl)cc1 | 1.03%
8 | NC(=O)C1CCN(C2CC(=O)N(c3ccc(OC(F)(F)Cl)cc3)C2=O)CC1 (stereo not drawn) | -3.05%
9 | O=C1C2C3CCC(C3)C2C(=O)N1O (stereo not drawn) | 2.03%
10 | Cc1ccc(-n2c(=S)[nH]c3sc4c(c3c2=O)CCCCC4)cc1 | 11.5%
11 | Cc1cnc(NC(=O)CSc2nnc(-c3ccccc3)o2)s1 | 5.52%
12 | CC(C)Nc1nc2c(-c3cccc(C(F)(F)F)c3)nnn2c2ccccc12 | -6.76%
13 | Cn1c(=O)c2c(n(C)c1=O)n(Cc1ccccc1Cl)c(=O)n2Cc1ccc(Cl)cc1Cl | -1.92%
14 | CCCn1c(SC(C)CC)nc2c1c(=O)[nH]c(=O)n2C (stereo not drawn) | -3.12%
15 | COc1cccc(C(=O)Nc2cccc(N)c2)c1OC | 6.29% and -1.17%
16 | CCN(CC)CCN(CC)C1CCN(C)CC1 | -7.5%
17 | CC(C)OCCCNC(=O)Cn1ccc2cc(S(=O)(=O)N3CCCCC3)ccc21 | 0.359%
18 | CCOC(=O)N1CCC(NC(=O)c2cc3c(Cl)nc4ccccc4c3s2)CC1 | 3.88%
19 | CCOC(=O)C1=CN(C(C)C)C=C(C(=O)OCC)C1c1cc(OC)ccc1OC | -5.05%
20 | Cc1nc2c(c(C)c1CCC(=O)NCCc1c[nH]c3ccccc13)c(=O)n(C)c(=O)n2C | -3.1%
21 | COc1ccc(CNC(=O)Cn2nc(C)n3c(cc4sccc43)c2=O)cc1 | -1.8%
22 | Cc1cc(C)nc(Nc2nc(-c3ccccc3)c(CC(=O)O)s2)n1 | -1.11%
23 | CCOc1ccc(-n2c(C)nc3cc(C(=O)NCc4ccc(F)cc4)ccc32)cc1 | 1.2%
24 | CSCCOC(=O)C1=C(C)NC(=O)NC1c1ccc(Cl)c(Cl)c1 (stereo not drawn) | 2.7%
25 | COc1ccccc1NC(=O)CSc1nc2c(c(C(F)(F)F)c1C#N)CCC2 | -2.56%

Row | Compound | % Inhibition @ 10 uM
26 | CCCCC(=O)Nc1nnc(Cc2ccccc2)s1 | -2.28%
27 | Cc1ccc(-c2ccc(=O)n(CCC(=O)NCc3ccc(F)cc3)n2)cc1 | 3.24%
28 | CCC(C(=O)NCc1ccc(OC(C)C)cc1)n1nc(C)c2c(C)n(-c3ccccc3)nc2c1=O (stereo not drawn) | 3.99%
29 | COc1ccc(C(=O)N2c3ccccc3C(C)(c3ccccc3)CC2(C)C)cc1 (stereo not drawn) | -2%
30 | Cc1nn(-c2ccccc2)c(-n2cccc2)c1C(=O)N1CCN(C2CCCCC2)CC1 | 0.137%
31 | Cc1ccc(S(=O)(=O)Nc2cccc3ccc(-n4nc(C)cc4C)nc23)cc1 | 4.88%
32 | Clc1cc2nc3sc4nc5ccccc5n4c3nc2cc1Cl | -2.23%
33 | Cc1nn(CC(=O)NCCCc2ccccc2)c(=O)c2cc3cc(F)ccc3n12 | -5.32%
34 | O=C(NC1(C(F)(F)F)NC(=O)N(Cc2cccnc2)C1=O)C1CC1 (stereo not drawn) | -0.834%
35 | CC(C)C[C@H](NC(=O)OC1CCc2ccccc21)C(=O)NCC#N (stereo partly drawn) | -3.04%
36 | CCCCCC(=O)N(CN1C(=O)c2ccccc2C1=O)c1ccc(OC)cc1 | -3.03%
37 | Cc1ccc2c(C)nc(NC3=NCN(C4CCCC4)CN3)nc2c1 | -1.33%
38 | CC(=O)c1ccc(N2CCN(Cc3ccc(Br)o3)CC2)cc1 | 5.35%
39 | COc1ccc2[nH]c3c(c2c1)CCNC3CC(=O)O (stereo not drawn) | -5.51%
40 | CCOC(=O)c1sc(NC(=O)CCn2nnc3ccccc32)c(C(=O)OCC)c1C | 3.81%
41 | Cc1ccc(C)c(OCC(=O)Nc2ccc(S(=O)(=O)N3CCCCCC3)cc2)c1 | -2.76%
42 | CCc1nnc(NC(=O)CSc2nnc(-c3c[nH]c4ccccc34)n2C)s1 | 2.12%
43 | COc1cccc(NC(=O)COc2ccc(Br)c(C)c2)c1 | -2.29%
44 | CC(=O)c1ccc(C(=O)C(=O)c2ccccc2)cc1 | -4.02%
45 | COC(=O)c1cc(C2CC2)nc2c1c(C)nn2-c1cccc(Cl)c1C | 1.77%
46 | COc1ccc(S(=O)(=O)N(CC(N)=O)c2ccc(C)cc2)cc1Br | -17.7%
47 | CCOC(=O)C1=C(O)/C(=C\c2cccc(Cl)c2)N=C1C | -1.6%
48 | Cc1ccc(NC(=O)CN2C(=O)S/C(=C\c3ccccc3O)C2=O)cc1 | 50.5%
49 | O=C(Cn1ncn2nc(-c3cccs3)cc2c1=O)NCCCc1ccccc1 | 0.623%
50 | Cc1ccc(C(=O)N2CCN(c3ccccc3)CC2)cc1S(=O)(=O)N1CCCCC1 | -2.91%

Row | Compound | % Inhibition @ 10 uM
51 | Cc1ccc(C(C)C)c(OCCn2cc(C=C3C(=O)NC(=O)NC3=O)c3ccccc32)c1 | 3.72%
52 | c1ccc(OCc2ccc(CCCN3CCOCC3)cc2)cc1 | 5.7%
53 | Cc1ccc(C)c(N(CC(=O)Nc2ccc(C)c(C)c2)S(C)(=O)=O)c1 | 3.74%
54 | CC(C)c1ccc(OCC(O)CNC2CC(C)(C)NC(C)(C)C2)cc1 (stereo not drawn) | 2.86%
55 | C=CCN1C(=O)C2C3C=CC(C2C1=O)C1C2C(=O)N(CC=C)C(=O)C2C31 (stereo not drawn) | -3.77%
56 | COCC(C)NC(=O)C1=CC(c2ccc(C)cc2)=NS(=O)(=O)N1C (stereo not drawn) | -1.06%
57 | C=CCOc1ccc(/C=C2\SC(=O)N(C)C2=O)cc1Br | -1.26%
58 | COc1ccc(C2OCC3C(C)C=C(C)C2C3C)cc1 (stereo not drawn) | -3.37%
59 | Cc1cc(C)c2c(CC(=O)NCc3ccncc3)coc2c1 | -0.671%
60 | O=c1c2sc3nc4ccccc4cc3c2ncn1-c1ccccc1 | 2.38%
61 | CCOc1ccccc1NC(=O)CN(c1ccccc1C)S(=O)(=O)c1ccc(C)cc1 | -8.67%
62 | Cc1onc(-c2c(Cl)cccc2Cl)c1C(=O)OCc1ccc2c(c1)OCO2 | -8.44%
63 | COc1ccc(C2=NOC(C(=O)N3CCOCC3)C2)cc1OC (stereo not drawn) | -2.16%
64 | COC(=O)c1[nH]c2ccc(C)cc2c1-n1cccc1 | 3.29%
65 | CC1=CC2=NC(=O)/C(=C\c3ccc(-c4ccc(C)c(Cl)c4)o3)C(=N)N2O1 | 3.63%
66 | CCCc1nc2ccccc2c(=O)n1-c1ccc(C)cc1 | 4.02%
67 | O=C1OCCC1Sc1nnc(-c2cccc(Cl)c2)o1 (stereo not drawn) | -1.69%
68 | O=c1cccc2n1C[C@H]1C[C@@H]2CN(C2CCC(c3ccccc3)CC2)C1 (stereo partly drawn) | -0.13%
69 | CCN(CC)CCNC(=O)CS(=O)(=O)Cc1nc(-c2ccccc2C)oc1C | -1.89%
70 | Cn1c(NCc2ccco2)nc2c1c(=O)n(Cc1ccccc1)c(=O)n2C | -5.14%
71 | Cc1cc(C)c(Cn2c(=O)n(CC(=O)NCCc3ccccc3)c(=O)c3sccc32)c(C)c1 | -8.56%
72 | COc1ccc(OC)c(CCNC(=O)Cn2ncc3c4ccccc4n(C)c3c2=O)c1 | -0.0741%
73 | C#CC(OC(=O)c1ccccc1C(=O)O)c1ccccc1 (stereo not drawn) | -0.128%
74 | NC(=O)c1c(NC(=O)c2ccc(-c3ccccc3)cc2)sc2c1CCCC2 | -1.65%
75 | COc1ccc(S(=O)(=O)N(CC(=O)NC2CCCC2)c2ccc(C)cc2)cc1Br | -0.641%

Row | Compound | % Inhibition @ 10 uM
76 | Cc1cc(=O)n(CC(=O)NCc2ccc3c(c2)OCO3)c2c1c(C)nn2C | 2.65%
77 | CCN(CC)CCNC(=O)c1sc2nc(-c3ccccc3)cn2c1C | -0.138%
78 | Cc1nnc2ccc(N3CCC(C(N)=O)(N4CCCCC4)CC3)nn12 | -0.692%
79 | COc1cc(NC(=O)C(c2ccccc2)c2ccccc2)c(OC)cc1Cl | 0.605%
80 | COc1ccc(CNCc2cc(OC)c(OC)c(OC)c2)cc1 | 6.91%
81 | O=C(O)c1ccc(Oc2ccc(C(=O)c3ccc(C(=O)O)cc3)cc2)cc1 | -1.45%
82 | Cc1ccsc1-c1nc(CSCC(=O)NC2CCC(C)CC2)c(C)o1 (stereo not drawn) | -2.85%
83 | Cc1cccc(NC(=O)COc2ccc(Br)cc2)n1 | -10.3%
84 | Cc1ccc(-c2nc(C(=O)NCCN3CCN(Cc4ccccc4)CC3)c3n2CCCCC3)cc1 | -3.17%
85 | CC1=C(C(=O)Nc2ccc(F)cc2F)C(c2ccccn2)C2=C(O)CC(C)(C)CC2=N1 (stereo not drawn) | 3.46%
86 | Cc1ccc(C)c(N2CCN(Cc3ccc(-c4ccc(Cl)cc4)o3)CC2)c1 | 1.57%
87 | CCOC(=O)c1sc(NC(=O)CCN2C(=O)c3ccccc3C2=O)c(C(=O)OCC)c1C | 0.736%
88 | COc1ccccc1NC(=O)C(C)Oc1ccccc1C (stereo not drawn) | -0.425%
89 | Cc1nnc(N2C(=N)S/C(=C\c3c(-c4ccccc4)n(C)c4ccccc34)C2=O)s1 | -5.62%
90 | COc1cccc(CN2CCN(Cc3ccc(OC)cc3OC)CC2)c1 | -0.48%
91 | CC1CC(C)CN(C(=O)c2cc3ccc4cccnc4c3[nH]2)C1 (stereo not drawn) | -1.25%
92 | CC1C(c2ccccc2)N(C)C(c2ccccc2)C(C)C1(O)c1ccc(F)cc1 (stereo not drawn) | -3.35%
93 | CC(Oc1ccc(C(=O)NC2CCCCC2)cc1)C(=O)O (stereo not drawn) | -4.33%
94 | O=C1CC(c2ccccc2F)c2cc3c(cc2N1)OCO3 (stereo not drawn) | -5.26%
95 | NC(=O)c1ccccc1NC(=O)c1ccccc1 | 0.98%
96 | CC(=O)Nc1c(N2CCCCC2)cnn(-c2ccccc2)c1=O | 4.71%
97 | O=C(Cc1nc2ccccc2[nH]1)N1CCCC1 | -2.44%
98 | CC(C)(C)OCC(NC(=O)OCc1ccccc1)C(=O)O (stereo not drawn) | 4.11%
99 | O=C(COc1ccccc1)Nc1nc(-c2ccc(F)cc2F)cs1 | -7.09%
